Laboratory results published in ChEMBL document CHEMBL4888484, “Replenishing the malaria drug discovery pipeline: Screening and hit evaluation of the MMV Hit Generation Library 1 (HGL1) against asexual blood stage Plasmodium falciparum ,using a nano luciferase reporter read-out” (2022).
The whole screen tested about 150,000 compounds, of which about 540 (0.36%) showed an effect of 50% or more. The list shows a part of the results.

What follows are molecules tested on Plasmodium falciparum (assay: Primary screen in NF54 nanoGlo assay, in single point, at 2uM, 72h; a lower Z score goes with more inhibition). Conditions: timepoint 72 hour.
Type: functional, Erythrocyte
For `CCC(=O)Nc1ccc(N2CCCN(C(=O)C3CCCC3)CC2)c(C(=O)NCc2ccc(F)cc2)c1`, the “% Inhibition” value was -14% and the Z score was 1.45.
For `O=C(NCc1ccc2c(c1)OCO2)C1CN(C(=O)C2CCCC2)CC1c1cccc(C(F)(F)F)c1` (centres undefined), the “% Inhibition” value was -9% and the Z score was 1.05.
For `O=C1NCC2(CCN(C(=O)CO[C@H](c3ccccc3)C(F)(F)F)CC2)O1`, the “% Inhibition” value was -9% and the Z score was 1.73.
In the case of `CC(C)=CC[C@]1(C(=O)O)CCCN(Cc2cccnc2N)C1`, the “% Inhibition” value is reported as -4% and the Z score is reported as 0.52.
For `O=C(Nc1nnc(C(F)F)s1)c1ccccn1`, the “% Inhibition” value was -18% and the Z score was 1.48.
In the case of `COc1ccc(Br)c(C(=O)N2CC[C@H](N3C(=O)COC3=O)C2)c1`, the “% Inhibition” value is reported as -17% and the Z score is reported as 1.92.
With `O=C(c1ccco1)N1CCN(c2nc(N3CCOCC3)nc(-n3ccnc3)n2)CC1` the “% Inhibition” value was 6% and the Z score was -0.81.
`Cc1noc(C)c1CN[C@@H](C)c1cccc(N2CCCC2)c1` was tested, and the “% Inhibition” value was -8% and the Z score was 1.16.
`CCN=C(NCCc1ccn(C(C)C)n1)NC1CC1C` (centres undefined) was tested, and the “% Inhibition” value was -2% and the Z score was 0.21.
With `CN(Cc1ccccc1)C(=O)CCC1CCN(C[C@H]2CCCOC2)CC1` the “% Inhibition” value was -2% and the Z score was 0.28.
In the case of `CCOC(=O)C1(CC)CC(C)(c2csc(N)n2)OC1=O` (centres undefined), the “% Inhibition” value is reported as -10% and the Z score is reported as 1.95.
For `O=C(c1ccc(COc2ccc3ccccc3c2)o1)N1CCN(S(=O)(=O)c2ccccc2)CC1`, the “% Inhibition” value was -11% and the Z score was 1.35.
With `COc1cc(OC)c(OC)cc1CNC(C)(C)C` the “% Inhibition” value was -12% and the Z score was 1.92.
For `CC(=O)N(C)CCc1nc(-c2cc(C(=O)C(Cl)(Cl)Cl)n(C)c2)cs1`, the “% Inhibition” value was -3% and the Z score was 0.3.
With `Cc1c(NC(=O)c2ccc(N3CCOCC3)c(F)c2)cnn1-c1ccccc1` the “% Inhibition” value was -15% and the Z score was 1.5.
With `Cc1ccc(NC(=O)Cn2nc3nc(N4CCOCC4)ccn3c2=O)cc1F` the “% Inhibition” value was -9% and the Z score was 1.
For `CCC1(CC)C(NC2CCc3[nH]ncc3C2)CC1OC` (centres undefined), the “% Inhibition” value was -15% and the Z score was 2.32.
`COc1ccc(CCNc2nnc(-c3ccc(C)cc3)c(=O)[nH]2)cc1OC` was tested, and the “% Inhibition” value was 31% and the Z score was -3.75.
For `O=C(CCc1ccco1)Nc1ccc(-c2cn3ccccc3n2)cc1`, the “% Inhibition” value was -17% and the Z score was 3.22.
In the case of `CN(Cc1nc(-c2ccoc2)no1)C1C2CCOC2C1(C)C` (centres undefined), the “% Inhibition” value is reported as -12% and the Z score is reported as 1.4.
For `Cc1nn(C)c(Cl)c1C(=O)NCCc1ccc2c(c1)OCO2`, the “% Inhibition” value was -5% and the Z score was 0.99.
`CC(C)[C@@H]1CC[C@H](C)C[C@H]1OC(=O)Cn1cc(-c2ccc(Cl)cc2)[n+]2c1CCC2` was tested, and the “% Inhibition” value was 79% and the Z score was -6.99.
In the case of `CCN(C)c1nc(N2CCN(c3ccccc3)CC2)nc2c1CN(C(=O)c1cc(OC)cc(OC)c1)CC2`, the “% Inhibition” value is reported as -17% and the Z score is reported as 2.37.
In the case of `Oc1ccc(Cc2nc(C3CC3)n[nH]2)cc1F`, the “% Inhibition” value is reported as -8% and the Z score is reported as 0.84.
`Cc1cc(CN2C[C@H]3CC[C@@H](C2)N(Cc2c(C)noc2C)C3=O)ccc1F` was tested, and the “% Inhibition” value was -18% and the Z score was 3.39.
`CN1CCC[C@@H]1CNC(=O)c1cc(F)c[nH]1` was tested, and the “% Inhibition” value was 4% and the Z score was -0.53.
For `CCCS(=O)(=O)N1CC[C@@H](c2nc(C)no2)N(C(=O)c2ccccc2)CC1`, the “% Inhibition” value was -3% and the Z score was 0.35.
`Cn1cc(Nc2nccs2)c(C2CC2)n1` was tested, and the “% Inhibition” value was -16% and the Z score was 2.79.
`O=C(CCN1CCc2ccccc2C(O)(c2ccccc2)C1)c1ccc2c(c1)OCCO2` (centres undefined) was tested, and the “% Inhibition” value was -20% and the Z score was 1.79.
`CN(CCCc1cnn(C)c1)S(=O)(=O)NCc1ccccc1` was tested, and the “% Inhibition” value was -5% and the Z score was 0.96.
For `CCCCN(C)CCNC(=O)c1nc(CS(=O)(=O)c2ccccc2)no1`, the “% Inhibition” value was 7% and the Z score was -1.23.
With `COCC(C)(C)NC(=O)N1Cc2cnc(-c3ccccc3)nc2C1` the “% Inhibition” value was -1% and the Z score was 0.09.
`CC[C@H](Nc1cccc(OC)c1)C(=O)N1CCCn2nc(C#N)cc2C1` was tested, and the “% Inhibition” value was -12% and the Z score was 1.43.
With `Cc1ccc(CNS(=O)(=O)c2cc(C(=O)N3CCOCC3)cs2)cc1` the “% Inhibition” value was -1% and the Z score was 0.07.
With `CN1CCC(n2nccc2NC(=O)c2ccc3[nH]cnc3c2)CC1` the “% Inhibition” value was -8% and the Z score was 1.39.
For `Cc1cccc(CNC(=O)c2cc3n(n2)CCCN(Cc2ccc(F)cc2)C3=O)c1`, the “% Inhibition” value was -12% and the Z score was 1.19.
In the case of `Cc1ccc(C2=C[C@@H](c3ccccc3)n3nnnc3N2CC(=O)NCc2ccccc2F)cc1`, the “% Inhibition” value is reported as -16% and the Z score is reported as 1.57.
For `CCc1ccccc1S(=O)(=O)N1CCC[C@](CCOC)(c2noc(C3CC3)n2)C1`, the “% Inhibition” value was -11% and the Z score was 1.63.
With `CCCCn1ncnc1-c1[nH]nc(C)c1Cl` the “% Inhibition” value was -6% and the Z score was 1.15.
In the case of `CCCC(=O)NCC(=O)NCc1nccc(N(C)C)n1`, the “% Inhibition” value is reported as -5% and the Z score is reported as 0.82.
`O=C(c1nc2ccc(Cl)cn2c1CNCc1cccnc1)N1CCCCCCC1` was tested, and the “% Inhibition” value was -16% and the Z score was 2.08.
`COCc1ncc(C)n1[C@H]1CCN(C(=O)CC2CCCC2)C1` was tested, and the “% Inhibition” value was 7% and the Z score was -1.15.
